# Assay results from the supplement of paper PMC10338343.
# ± gives the standard deviation. Over roughly 3,700 sequences, “pre-steady-state target cleavage rate” has its median near 0.02; the highest 2% begin near 0.23. The list shows a part of the results, in another mix than the full data.
# System: MILI (PIWIL2) piRISC loaded with Kctd7 piRNA (26 nt)
# Experiment: pre-steady-state target cleavage rate (min^-1); MIWI and MILI are mouse PIWI proteins and EfPiwi is from a freshwater sponge; tags in brackets are library labels; higher = faster piRNA-guided slicing of the target
# Conditions: guide: Kctd7 piRNA 5'p-UGUUAAUCUCUCAGAGAAGGUGACAG; auxiliary factor: 500 nM mouse GTSF1
# Description: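 Cleave-'n-Seq: a library of target RNAs (target site embedded in constant flanks, ACAGCATTCCGCGTTAGTGATATCCG... 5' flank; DNA-blocked outside the site) at 0.1 nM was incubated with 1 nM active mouse MILI or MIWI piRISC (synthetic 5'-monophosphorylated piRNA guide) with or without 500 nM mouse GTSF1 at 33 °C for 1 min to 16 h. Uncleaved targets were sequenced and normalised to non-target controls, and the pooled three trials were fitted to a burst-and-steady-state model to give the pre-steady-state cleavage rate (min^-1; k3 is constrained to at most 1e-4). Sequence is the target site only; target names encode pairing extent (gX:gY) and contiguous / 1-mismatch / 2-mismatch / bulge geometry. Fits with R² ≤ 0 are excluded.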
row,Sequence,pre-steady-state target cleavage rate
1,UAGUGACAGACCUUCUCUGAGAAAUUAACA,0.0522 ± 0.015
2,UAGUCUGUCACCUUCUCUGAGAGAUUAACG [g2:g26:cont:t1G],0.196 ± 0.011
3,UAGUGACAGUGCUUCACUGAGAGAUUAACA,0.0228 ± 0.0072
4,UAGUCUGUCACCUUCACUGAGAGAUUAUCA,0.118 ± 0.029
5,UAGUGACAGUCCUUCACUGAGAGAUUAACA,0.0713 ± 0.012
6,UAGUGACAGUGCUUCUCUGAGAGGAUUAACA,0.0129 ± 0.0041
7,UAGUGAGUCUACCUUCUCUGAGAGAUUAACA,0.0908 ± 0.013
8,UAGUGUGAUCACCUUCUCUGAGAGAUUAACA,0.24 ± 0.018
9,UAGUCUGUCACCUUCUCUGAGACGAUUAACA,0.0566 ± 0.0058
10,UAGUGACAGACCUUCUCUGAGAGACUAACA,0.0389 ± 0.011
11,UAGUGUGUCAGCUUCUCUGAGAGAUUAAGA,0.0667 ± 0.013
12,UAGUGUGUCACCUUCUGUGAGAGAUUAAGA,0.0204 ± 0.0087
13,UAGUGACAGACCUUCUCUGAGAGAUUUAACA,0.183 ± 0.018
14,UAGUGACACACCAACUCUGAGAGAUUAACA,0.054 ± 0.0049
15,UAGUGACUCACCUUCUCUGAAGAGAUUAACA,0.00273 ± 0.0024
16,UAGUCUGUCACGUUCUCUGAGAGAUUAUCA,0.0741 ± 0.0087
17,UAGUGACAGUGGUUCUCUGAGUGAUUAUCA,< 0.0001
18,UAGUGACAGUCGUACUCUGAGAGAUUAACA,0.0158 ± 0.0024
19,UAGUGACUCACGUUCUCUGAGAGAUUAUGA,0.00962 ± 0.0031
20,UAGUGAGUCACCUUCUCUGAGAGAGUUAACA,0.257 ± 0.044
21,UAGUGUGUCUCCUUCUCUGAGUGAUUAACA,0.00466 ± 0.003
22,UAGUGACACACCUUGAGUGAGAGAUUAACA,0.00938 ± 0.0042
23,UAGUGUGUCACCUUCACUGAGUGAUUAACA,0.00908 ± 0.004

row,Sequence,pre-steady-state target cleavage rate
1,UAGUGACAGUGGAAGUCUGAGAGAUAUUCA,< 0.0001
2,UAGUGACAGUCCUUCUCUGAGGAGAUUAACA,0.00431 ± 0.0026
3,UAGUGACUCAGCUACUCUGAGAGAUUAACA,0.0343 ± 0.0053
4,UAGUGACAGUGCUUCUCUGAGAGCUUAACA,0.0104 ± 0.0032
5,UAGUGAGUCACCUUCUCAGAGAGAUAAACA,0.0919 ± 0.025
6,UAGUGUGAGUCCUUCUCUGAGAGAUUAUGA,0.0046 ± 0.0039
7,UAGUGACACAACUUCUCUGAGAGAUUAACA,0.0327 ± 0.0051
8,UAGUGACUUACCUUCUCUGAGAGAUUAACA,0.0833 ± 0.0077
9,UAGUGACAGUGGAAGUCUGAGAGAGUUAACA,< 0.0001
10,UAGUGAGUCACCUUCACUGAGAGAAUAACA,0.0231 ± 0.0061
11,UAGUGACAGUGGUUCUCUGAGACAUUAACA,< 0.0001
12,UAGUGUCUCACGUUCUCUGAGAGAUUAACA,0.125 ± 0.012
13,UAGUGACUCACGUUCUCUGAGAGAAUAACA,0.0231 ± 0.0061
14,UAGUGACAGACCUUCUCUGAAAGAUUAACA,0.0466 ± 0.0079
15,UAGUGACUCACCUUCUGUGAGAGAUUUACA,0.0485 ± 0.009
16,UAGUGACAGUGCUUCUCUGGGAGAUUAACA,0.0267 ± 0.006
17,UAGUGACUCACCUUCACUGAGAGUUUAACA,0.0766 ± 0.021
18,UAGUGAGUCACCUUCUGUGAGAGAUUAACA,0.176 ± 0.011
19,UAGUGACUCACCUUCUCUGAGAGUAUAACA,0.0908 ± 0.015
20,UAGUGAGUUCACCUUCUCUGAGAGAUUAACA,0.184 ± 0.014
21,UAGUGACUCACCUUGUCUGAGAGAUUAUCA,0.0189 ± 0.011
22,UAGUGACUCACCUUCUCACAGAGAUUAACA,0.00519 ± 0.0034
23,UAGUGACAGUGGAACUCUGUCAGAUUAACA,< 0.0001

row,Sequence,pre-steady-state target cleavage rate
1,UAGUGACUCACCUUCUCUGAGAGAUUAAUA,0.0948 ± 0.022
2,UAGUCUGUCACCUUCUCAGAGAGAUAAACA,0.118 ± 0.026
3,UAGUCUGUCACCUUCUCUAGAGAUUAACA,0.0294 ± 0.01
4,UAGUGUGUGACCUUCUCUGACAGAUUAACA,0.0306 ± 0.0081
5,UAGUGACAGACCUUGACUGAGAGAUUAACA,0.0118 ± 0.0054
6,UAGUGACUCACCUUGUCUGAGAGAUUAACA,0.0996 ± 0.017
7,UAGUGAGUCACCUUCUCUAAGAGAUUAACA,0.148 ± 0.015
8,UAGUGACAGUGGUUCUCUGACGAGAUUAACA,< 0.0001
9,UAGUGACAGUGCUUCACUGACAGAUUAACA,0.00488 ± 0.0029
10,UAGUGACAGUCCUUGUCUGUGAGAUUAACA,0.0171 ± 0.0041
11,UAGUCUGUCACCUUCUGUGAGAGUUUAACA,0.0702 ± 0.016
12,UAGUGUGUCACCUUCAGUGAGAGAUUAAGA,0.00654 ± 0.0043
13,UAGUGAGUCACCUUCUCUGACAGUUUAACA,0.0134 ± 0.0052
14,UAGUGAGUCACGUUCUCUGAGUGAUUAACA,0.0057 ± 0.0032
15,UAGUGAGUCACCUUCUCUGACAGAUUAACA,0.0582 ± 0.0063
16,UAGUGACACACCUUCUGUGAGAGUUUAACA,0.0882 ± 0.023
17,UAGUGACAGACCUUCUGUCAGAGAUUAACA,0.0234 ± 0.0075
18,UAGUGACAGUGGUUCUCUGAGAGAUUGACA,0.00676 ± 0.0021
19,UAGUGACUCACCUUCACUGAGAGAUUAUCA,0.0961 ± 0.022
20,UAGUGACUCACCAUCUCUGUGAGAUUAACA,0.0423 ± 0.0051
21,UAGUGACAGACGUUCUCUGAGAGAUUAUGA,0.0059 ± 0.0036
22,UAGUGACAGUGGAAGUCUGAGAGUAAUUGA [g8:g15:cont:t1A],< 0.0001
23,UAGUGACAGUGCUUGUCUCAGAGAUUAACA,0.00789 ± 0.0033

row,Sequence,pre-steady-state target cleavage rate
1,UAGUGUGUCACCUUCUCUGAGAGAUUACACA,0.06 ± 0.022
2,UAGUGACACAGGAUCUCUGAGAGAUAUUGA,< 0.0001
3,UAGUGACAGUGGUUCUCUCAGAGUUUAACA,< 0.0001
4,UAGUGACAGUGGUUCCCUGAGAGAUUAACA,0.00909 ± 0.0031
5,UAGUGAGUCACCUUCAUCUGAGAGAUUAACA,0.195 ± 0.053
6,UAGUGACUCACCUUCUCUGAGAGAAAUACA,0.017 ± 0.0087
7,UAGUGAGUCACCUUCUCUGAGCGAUUAACA,0.0537 ± 0.024
8,UAGUGACUCACCUUCUCUGAGAGAUUAACC [g2:g23:cont:t1C],0.162 ± 0.019
9,UAGUGUGUACCUUCUCUGAGAGAUUAACA,0.129 ± 0.014
10,UAGUGACUCACCCUCUCUGAGAGAUUAACA,0.22 ± 0.023
11,UAGUCAGUCACCUUCUCUGUGAGAUUAACA,0.0672 ± 0.0075
12,UAGUGUGUCACCAUCUCUGAGUGAUUAACA,0.00697 ± 0.0037
13,UAGUGAGUCACUUCUCUGAGAGAUUAACA,0.115 ± 0.011
14,UAGUGUGUCACGUUCUCUGAGAGAUAAACA,0.0819 ± 0.017
15,UAGUCUGUCACCUUCUCUGAGAGAUUGACA,0.246 ± 0.044
16,UAGUGACUCACCAAGUCUGAGAGAUUAACA,0.0618 ± 0.0075
17,UAGUGACUCACCUUCUCUGAGACUAUAAGA,< 0.0001
18,UAGUGACAGACCUUCUCAGACAGAUUAACA,0.00549 ± 0.0033
19,UAGUGACAGAGCUUCUCUGAGAGAUUAUCA,0.0166 ± 0.0051
20,UAGUCAGUCACCUUCUCUGAGAGAUUAUCA,0.222 ± 0.031
21,UAGUGACAGUGGUCCUCUGAGAGAUUAACA,0.00836 ± 0.0012
22,UAGUGACAGUCCUACUCUGAGAGAUAAACA,0.00281 ± 0.0025
